# Molecular target: human cannabinoid CB2 receptor (Homo sapiens, UniProt P34972)
# Assay: Cannabinoid CB2 receptor agonist activity in yeast cells (FDGlu fluorescence)
# Conditions: read-out: efficacy (Emax) at the cloned human cannabinoid CB2 receptor
# human cannabinoid CB2 receptor, sequence (P34972 whole entry): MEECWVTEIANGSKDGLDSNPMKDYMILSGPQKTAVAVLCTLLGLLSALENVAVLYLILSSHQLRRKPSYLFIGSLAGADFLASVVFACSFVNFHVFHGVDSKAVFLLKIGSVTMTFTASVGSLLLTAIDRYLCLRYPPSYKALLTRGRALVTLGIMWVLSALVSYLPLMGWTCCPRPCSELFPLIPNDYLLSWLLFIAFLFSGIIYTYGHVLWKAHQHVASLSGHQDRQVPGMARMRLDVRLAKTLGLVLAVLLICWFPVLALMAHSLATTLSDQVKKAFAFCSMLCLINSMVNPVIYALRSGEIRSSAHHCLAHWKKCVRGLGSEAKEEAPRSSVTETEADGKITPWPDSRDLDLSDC
row,SMILES,Emax [%]
1,"O=C(NCC1CCOCC1)c1cnc(Nc2cc(Cl)ccc2Cl)nc1C(F)(F)F [Example 35, 2-(2,5-Dichlorophenylamino)-4-trifluoromethylpyrimidine-5-carboxylic acid (tetrahydropyran-4-ylmethyl)-amide]",> 50
2,"O=C(NCC1CCOCC1)c1cnc(Nc2c(Cl)cccc2Cl)nc1C(F)(F)F [Example 55, 2-(2,6-Dichlorophenylamino)-4-trifluoromethyl-pyrimidine-5-carboxylic acid (tetrahydro-pyran-4-ylmethyl)-amide]",> 50
3,"O=C(NCC1CCOCC1)c1cnc(Nc2cc(Cl)cc(Cl)c2)nc1C(F)(F)F [Example 36, 2-(3,5-Dichlorophenylamino)-4-trifluoromethylpyrimidine-5-carboxylic acid (tetrahydropyran-4-ylmethyl)-amide]",> 50
4,"O=C(NCC1CCOCC1)c1cnc(Nc2ccc(F)cc2Cl)nc1C(F)(F)F [Example 233, 2-(2-Chloro-4-fluoro-phenylamino)-4-trifluoromethyl-pyrimidine-5 carboxylic acid (tetrahydro-pyran-4-ylmethyl)-amide]",> 50
5,O=C(NCC1CCOCC1)c1cnc(Nc2cc(Cl)ccc2F)nc1C(F)(F)F [Example 213],> 50
6,"O=C(NCC1CCOCC1)c1cnc(Nc2cccc(Cl)c2)nc1C(F)(F)F [Example 22, 2-(3-Chlorophenylamino)-4-trifluoromethylpyrimidine-5-carboxylic acid (tetrahydro-pyran-4-ylmethyl)-amide]",> 50
7,CC(C)CNC(=O)c1cnc(Nc2cccc(Cl)c2)nc1C(F)(F)F [Example 210],> 50
8,"O=C(NCC1CCOCC1)c1cnc(Nc2cc(F)cc(F)c2)nc1C(F)(F)F [Example 214, 2-(3,5-Difluorophenylamino)-4-trifluoromethyl-pyrimidine-5-carboxylic acid (tetrahydro-pyran-4-ylmethyl)-amide]",> 50
9,"O=C(NCC1CCC1)c1cnc(Nc2cccc(Cl)c2)nc1C(F)(F)F [Example 54, 2-(3 Chlorophenylamino)-4-trifluoromethylpyrimidine-5-carboxylic acid cyclobutylmethyl-amide]",> 50
10,"O=C(NCC1CCOCC1)c1cnc(Nc2ccc(Cl)cc2Cl)nc1C(F)(F)F [Example 34, 2-(2,4-Dichlorophenylamino)-4-trifluoromethylpyrimidine-5-carboxylic acid (tetrahydropyran-4-ylmethyl)-amide]",> 50
11,"O=C(NCC1CCOCC1)c1cnc(Nc2ccc(Cl)c(Cl)c2)nc1C(F)(F)F [Example 250, 2-(3,4-Dichlorophenylamino)-4-trifluoromethylpyrimidine-5-carboxylic acid (tetrahydro-pyran-4-ylmethyl)-amide]",> 50
12,"O=C(NCC1CCCCC1)c1cnc(Nc2cccc(Cl)c2)nc1C(F)(F)F [Example 4, 2-(3-Chlorophenylamino)-4-trifluoromethylpyrimidine-5-carboxylic acid cyclohexylmethylamide]",> 50
13,"O=C(NCC1CCOCC1)c1cnc(Nc2cccc(Cl)c2Cl)nc1C(F)(F)F [Example 33, 2-(2,3-Dichlorophenylamino)-4-trifluoromethylpyrimidine-5-carboxylic acid (tetrahydropyran-4-ylmethyl)amide]",> 50
14,O=C(NCC1CCCC1)c1cnc(Nc2cccc(Cl)c2)nc1C(F)(F)F [Example 2],> 50

# Source: patent publication US7635701B2 (Glaxo Group Limited, priority 2002, dated 2009)
